In US20230094463A1, “ANTIBODIES THAT DISRUPT THE INTERACTION OF GAL3 AND INSULIN RECEPTOR OR INTEGRINS AND METHODS OF USE THEREOF” (TrueBinding, Inc., priority 2019, published 2023):
Changes are numbered by the printed parent chain.

B1: 4G2.2G6: anti-Gal3 monoclonal antibody (antibody, V domains shown)
VH: QIQLVQSGPDLKKPGETVKISCKASGYTFTTYVMSWVKQAPGKDLKWMGWINTHSGVPTYADDFKGRFDFSLETSANTAFLQINNLKNEDTATYFCTRDGNDGDAMDNWGQGTSVTVSS
VL: DVVMTQTPLTLSVTIGQPASISCKSSQSLLYTDGKTYLSWFLQRPGQSPKRLIYLVSKLDSGVPDRFSGSGSGTDFTLKISRVEAEDLGVYYCLQSTHFPLTFGAGTKLEVK
B2: 3B11.2G2: anti-Gal3 monoclonal antibody (antibody, V domains shown)
VH: QIQLVQSGPELKKPGETVKISCKTSGYKFKTYVMSWVKQAPGKALKWMGWINTYSGVPTYADDFKGRFAFSLETSASTAYLEIINLKNEDTATYFCARDGNYGDPMDYWGQGTSVTVSS
VL: B1 VL with T14A, D33N, S39N, F41L, V111L
B3: 13H12.2F8: anti-Gal3 monoclonal antibody (antibody, V domains shown)
VH: QIQLVQSGPELKKPGETVKISCKASGYTFTTYGMSWVKQAPGKGLKWMGWINTYSGVPTYADDFKGRFAFSLETSASTAYLQINNLKNEDTATYFCAVPYEYDGAYWGQGTLVTVSA
VL: B1 VL with L30F, Y31H, T32S, S39N, F41L, S68T, L94W, S96G, V111M
B4: 14H10.2C9: anti-Gal3 monoclonal antibody (antibody, V domains shown)
VH: B3 VH with S35G, G44D, N84S, A97S, V98T
VL: B1 VL with L30F, Y31D, T32S, S39N, F41L, S68T, L94W, S96G, V111M

Assays:
[1] = molecular target: T1, Gal3 peptides (SEQ ID NOs: 3-26) (Homo sapiens, UniProt P17931); assay: Gal3 peptide library binding ELISA (epitope mapping); conditions: for binding to Gal3 Peptide 4: Peptide 4 (SEQ ID NO: 6), amino acids 31-50 of Gal3; for binding to Gal3 Peptide 6: Peptide 6 (SEQ ID NO: 8); for binding to Gal3 Peptide 7: Peptide 7 (SEQ ID NO: 9), amino acids 61-80 of Gal3
T1 construct: a library of 24 amino acid peptides representing portions of Gal3; purchased LifeTein custom order
Procedure: To identify the epitopes to which Gal3 antibodies with and without Gal3-INSR blocking activity bound, a library of 24 amino acid peptides representing portions of Gal3, depicted in FIG. 27, was produced and the ability of each peptide to bind Gal3 antibodies was evaluated by ELISA. At least 2 μg/ml of hGal3 peptide in 50 μl of PBS or 0.1 μg/ml of full-length human Gal3 protein (GenScript) and human Galectin-3 protein (Acro Biosystems, GA3-H5129) were diluted in PBS (Corning, 21-030-CM) to concentrations of at least 2 μg/ml or 0.1 μg/ml, respectively, and added to the wells of a 96-well ELISA plate (Thermo Fisher, 44-2404-21). After incubating the plate at 4° C. overnight, the plate was washed three times with PBST (PBS with 0.05% Tween 20 [VWR, 0777]). The plate was then blocked for an hour with 2% BSA (EMD Millipore, 126609) in PBST at room temperature with gentle rocking. Thereafter, the 2% BSA in PBST was discarded and human Galectin-3 hybridoma supernatants or antibodies were diluted in 2% BSA in PBST to concentrations of at least 0.1 μg/ml and added to the wells. The plate was incubated for an hour at room temperature with gentle rocking and then washed three times with PBST. Afterwards, Goat Anti-Mouse IgG-HRP (Jackson ImmunoResearch, 115-036-1461) or Goat Anti-Rat IgG HRP (Abcam, ab205720) diluted in 2% BSA in PBST (1:4000) were added to the wells. The plate was incubated for 30 minutes to 1 hour at room temperature with gentle rocking and then washed three times with PBST. TMB substrate (Thermo Scientific, 34029) was then added to each well. The reaction was stopped with 1M HCl (JT Baker, 5620-02) and read using a plate reader (Molecular Devices) at absorbance of 450 nm.
Human Gal3 peptides (LifeTein, custom order) and human Gal3 proteins (R&D Systems, 8259-GA; TrueBinding, QCB200349) were diluted in PBS (Corning, 21-030-CM) to concentrations of at least 100 μg/mL (peptides) or 1 μg/mL (proteins), and added to the wells of several 96-well ELISA plates (Thermo Fisher, 44-2404-21). After incubating the plates at 4° C. overnight, the plates were washed three times with PBST (PBS with 0.05% Tween 20 [VWR, 0777]). The plates were then blocked for an hour with 2% BSA (EMD Millipore, 126609) in PBST at room temperature with gentle rocking. Thereafter, the 2% BSA in PBST was discarded and Gal3-binding antibodies (reformatted hIgG4 [S228P]) were diluted in 2% BSA in PBST to concentrations of 5 μg/mL and added to the wells. The plates were incubated for an hour at room temperature with gentle rocking and then washed three times with PBST. Afterwards, Peroxidase AffiniPure F(ab′)2 Fragment Goat Anti-Human IgG (H+L) polyclonal antibody (Jackson ImmunoResearch, 109-036-003), was diluted in 2% BSA in PBST (1:4000) and added to the wells. The plates were incubated for 1 hour at room temperature with gentle rocking and then washed three times with PBST. TMB substrate (Thermo Scientific, 34029) was then added to each well. The reaction was stopped with 1M HCl (JT Baker, 5620-02) and read using a plate reader (Molecular Devices) at absorbance of 450 nm.

human Gal3 = molecular target: T2, human Gal3 (Homo sapiens, UniProt P17931); assay: Antibody binning assays (competition for binding to Gal3); conditions: binning per Examples 3 and 18
T2 construct: His; purchased AcroBio GA3-H5129
Procedure: To determine whether Gal3-binding antibodies with Gal3-INSR blocking activity bind to the same or overlapping regions of the Gal3 molecule, antibody binning assays were performed to assess the ability of antibodies to simultaneously bind Gal3. Amine-reactive probes were loaded onto a Gator biosensor (Probe Life, Palo Alto, Calif.), equilibrated in dH20 for 60 seconds, dipped into 100 μl EDC 0.2M/NHS 0.05M activation buffer for 30 seconds, then dipped into a solution of […] human Gal3-His in 10 mM NaOAc buffer, pH 5 until binding was saturated, and quenched in 1 M ethanolamine pH 8.5 for 300 seconds. Following Gal3-His loading, tips were dipped in 20 μg/mL saturating antibody, then successively dipped into 5 μg/mL competing antibody.
The epitope binning assay was done in a sandwich format on the high-throughput SPR-based Carterra LSA unit (CarterraBio, Salt Lake City, Utah). First, the purified antibodies were diluted to 10 μg/ml concentration in 10 mM NaOAc (pH 5.0) and then were covalently coupled via amine group to HC200M chip activated by EDC and S-NHS to immobilize antibodies to different positions of a 384-spot array. One hundred thirty-eight binning cycles were run on the array of immobilized antibodies. In each cycle, first, human Gal3 (AcroBio GA3-H5129) was injected over the entire array to bind to different antibodies (primary antibody), followed by one antibody (secondary antibody) selected among the panel of 150 anti-GAL3 antibodies tested. At the end of each cycle, the array was regenerated by 10 mM Glycine (pH 2.0) to remove bound antigen and secondary antibody from the array. The data analysis was done using the Epitope software by CarterraBio.

T2 sequence (P17931 whole entry): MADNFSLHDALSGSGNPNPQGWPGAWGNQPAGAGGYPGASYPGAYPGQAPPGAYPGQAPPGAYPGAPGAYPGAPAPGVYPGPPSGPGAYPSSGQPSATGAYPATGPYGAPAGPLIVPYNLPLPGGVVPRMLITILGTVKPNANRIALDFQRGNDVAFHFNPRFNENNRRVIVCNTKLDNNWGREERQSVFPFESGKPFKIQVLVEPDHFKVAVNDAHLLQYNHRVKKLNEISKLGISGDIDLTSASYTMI

Row | Molecule | binding to Gal3 Peptide 4 [1] | epitope bin (competitive binding to Gal3) (human Gal3) | binding to Gal3 Peptide 6 ([1]; amino acids 51-70 of Gal3) | binding to Gal3 Peptide 6 ([1]; amino acids 51-70 of Gal3, listed as 3B11.2D2) | binding to Gal3 Peptide 7 [1]
1 | B1 | bind and bound | bin 6 |  |  | 
2 | B2 | bind and bound | bin 7 | bound | bind and bound | bound
3 | B3 |  |  | bind and bound |  | bind and bound
4 | B4 |  | bin 8 | bind and bound |  | bind and bound
